The supplement of paper PMC3334620
In all, about 33,000 sequences were measured (“E-score (-0.5 to 0.5)”: median about -0.036, highest 2% from about 0.37 on). The list shows a part of the results.

molecular target: T1, Yer064c (UniProt P40041); test: PBM E-score (8-mer binding enrichment) (E-score (-0.5 to 0.5)); higher = stronger / more preferred TF binding; most listed sequences are background and not binding sites; conditions: protein concentration: 200 nM; construct: GST-full length
T1 sequence: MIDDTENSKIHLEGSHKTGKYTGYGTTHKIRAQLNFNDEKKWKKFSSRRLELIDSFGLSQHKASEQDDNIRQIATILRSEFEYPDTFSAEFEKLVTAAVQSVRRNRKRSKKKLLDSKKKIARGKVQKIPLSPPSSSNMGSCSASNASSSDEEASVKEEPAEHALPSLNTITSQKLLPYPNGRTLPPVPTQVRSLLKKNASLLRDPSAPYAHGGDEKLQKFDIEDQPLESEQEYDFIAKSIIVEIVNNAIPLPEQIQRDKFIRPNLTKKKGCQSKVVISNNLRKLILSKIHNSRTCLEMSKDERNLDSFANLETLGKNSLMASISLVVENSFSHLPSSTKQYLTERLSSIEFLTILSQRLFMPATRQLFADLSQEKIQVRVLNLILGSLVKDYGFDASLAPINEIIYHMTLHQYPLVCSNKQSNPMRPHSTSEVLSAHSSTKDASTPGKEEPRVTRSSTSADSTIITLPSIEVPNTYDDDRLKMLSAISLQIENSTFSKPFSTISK
Method: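 Universal 'all 10-mer' protein binding microarrays (Agilent AMADID 015681) probed with GST-tagged S. cerevisiae TFs (full-length or DBD) made by in vitro transcription/translation (PURExpress), about 100-200 nM. Bound TF was detected with fluorescent anti-GST. Each ungapped 8-mer (which stands for itself and its reverse complement) is scored by the PBM enrichment score (E-score), a modified Wilcoxon-Mann-Whitney statistic from -0.5 to +0.5, computed with the Universal PBM Analysis Suite. Scale: above 0.35 generally sequence-specific binding.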

Sequence | PBM E-score
ACTTGCTG | 0.0765
GGCATGCA | -0.106
GTTTACAA | 0.00942
CTCATTAC | 0.14
TCCGCCAA | -0.106
ATGGACCC | -0.215
ATTATACG | 0.0811
AACCCTAC | -0.183
GGCTCGTA | -0.00888
TAGGGTGA | 0.249
TCCTCTAA | 0.0696
TACTACGA | 0.181
TAACCCGA | 0.0588
CCAGACAA | -0.106
CTACCCTA | -0.00825
CCGAGTAA | -0.0541
CTGAAGAC | 0.152
GACTGCAC | 0.288
GGTCACAC | -0.00398
ACGACTTA | 0.276
ATCCCGTA | -0.128
CGGAGATA | -0.051
AGGAGCTA | -0.21
AGTCCAGA | 0.243
AAGGGATC | -0.128

Sequence | PBM E-score
CAGCACCG | -0.0618
ACAAATAC | 0.0831
CGTCTCCA | -0.139
ATCGGGAC | -0.0863
CGCAAATA | -0.0941
CCCTCACC | -0.163
GATTTCAC | 0.26
GGGCGTCA | -0.227
GCCGCCAA | -0.0657
ACGAAATC | 0.12
ATCAGCAC | 0.233
AATTCAAT | 0.0175
CAATCGCC | 0.0336
AGCGATCG | -0.147
GAACATGC | -0.288
AGTCGAAC | 0.219
ACCCAATA | -0.195
ATAACATG | 0.016
CAACACAA | 0.0452
AGCGCTGC | -0.207
AATGGGCT | -0.041
TGGGGTAA | 0.044
ACGCCCTG | -0.221
CATGCGCA | 0.0115
GCGCGGCC | -0.365

Sequence | PBM E-score
AACCGGAA | -0.263
CCGACGCA | -0.317
CCGCGTCG | 0.105
AAGAGGGG | -0.354
GCTTTAAA | 0.0638
GATAATAC | 0.0323
ACGCAGGA | -0.137
ATACATAT | 0.113
AATGTAAG | 0.0552
GCGCCCAC | -0.243
AGAGGGCA | 0.0642
ACGAAACT | 0.0467
CGCAGCGC | -0.189
ATATACGA | 0.0449
ATTCGTCC | 0.0945
AAAGTGAG | 0.188
ATAGCGAC | -0.0257
ACATGTCT | 0.144
AAGCAACG | -0.155
ATGACTGA | 0.464
AACCTAGA | -0.189
GAACCGCA | 0.015
AATGCTAC | 0.017
CTAGTGGA | -0.0448
GTCTCTTA | 0.034

Sequence | PBM E-score
CGCATTCA | -0.0901
CCGTTCTA | -0.0689
CCGCAACA | 0.034
CGCATCAG | 0.00592
ATATCACC | -0.00284
ACGGGTCG | -0.0559
CGCGCCAA | -0.0672
TGAAGGAA | 0.0648
ATTTAATG | 0.0592
ACGAAGCT | -0.147
AGAGCCGC | -0.156
ATGTAGCC | -0.196
ACATTGGA | -0.253
CCGGTTAC | 0.0003
CCGAGCCG | -0.218
ATCAACCA | 0.198
GGTCCTAC | -0.276
ATGATCAA | 0.185
ATTCTTGA | 0.189
ATTGCCCG | -0.0774
GCTGATCA | 0.111
TATTGAAA | 0.186
AGCGCTGA | 0.0781
CATGGCAG | 0.0472
GATTCGTA | 0.166

Sequence | PBM E-score
CTGTCCTA | -0.0316
AACAACCC | -0.2
CATCGAAG | -0.191
AATTCTGG | -0.0115
ATTCGTGC | 0.127
CGATTGCA | 0.0549
ACTCTAAG | 0.0252
CCCCTTAG | -0.138
ACTAGTCG | 0.323
GATTCTTA | 0.294
AATGTTGA | -0.043
TGATAGAA | -0.16
AAAGGCTT | -0.143
AAGTGCTG | 0.0417
AGGTCTAC | -0.0112
CGCTATCC | -0.199
ACTCATTC | 0.394
GTATATTA | 0.206
TCTCCAAA | 0.0477
GCACTCGA | -0.0859
ACCAGTTC | -0.271
CATAAGCG | 0.00196
ACTTATTA | 0.165
CGAATAGA | -0.0882
CCTTGGCG | -0.0906

Sequence | PBM E-score
GAGCTTAA | 0.029
AGGAGTAA | 0.177
CTTCCACC | -0.24
CCGGTACG | -0.174
AAGTTGGC | -0.216
ATCAGGGA | -0.0516
GCTGTTCC | -0.335
ATGCTATG | 0.0936
CCGGAGAA | -0.117
GTCCGTAA | 0.0807
ATCTAGTA | 0.138
GCCATCCA | -0.0888
CGTGTGAC | 0.0672
TGCCTTAA | -0.0909
CTACTACC | -0.0463
ACACGTAA | 0.0013
GGTTAAAA | 0.0563
AACCCGCC | -0.00783
GTGATGTA | -0.0289
GGGAGACC | -0.259
GTACAGAA | 0.0343
CTCACGCC | 0.172
CACACTGA | 0.0492
GTCGCCCA | 0.0975
ATATAGGG | -0.236

Sequence | PBM E-score
CTTGTCAC | -0.185
CGTGGGTA | 0.0333
AGCATGAC | 0.212
AGATGTGG | -0.0274
CTGAGTCC | 0.402
GCAAGTAC | 0.023
AATCGATC | 0.128
AAGACAAG | -0.182
GAAAGGGC | -0.14
TTCTCCAA | -0.117
CGCTAACG | 0.0264
GCAAGGCC | -0.239
CCTAAACA | -0.103
ATATCCAA | 0.0243
TAGTCTAA | 0.279
AATTGTTC | 0.0722
CCGAGCGC | -0.0243
GAGGTAGC | -0.0828
CGGTCACA | -0.132
ACAAAACG | -0.0665
AATAGTGT | 0.0208
ACCGGTCC | -0.0405
